The target in the assay is AgrA-P3 complex (Staphylococcus aureus, UniProt P0A0I7). In words: Electrophoretic mobility shift assay, AgrA with P3 promoter DNA. The settings on record: tested at 0.1, 1 and 10 μM.
Sequence of AgrA-P3 complex (P0A0I7 whole entry, one chain of several): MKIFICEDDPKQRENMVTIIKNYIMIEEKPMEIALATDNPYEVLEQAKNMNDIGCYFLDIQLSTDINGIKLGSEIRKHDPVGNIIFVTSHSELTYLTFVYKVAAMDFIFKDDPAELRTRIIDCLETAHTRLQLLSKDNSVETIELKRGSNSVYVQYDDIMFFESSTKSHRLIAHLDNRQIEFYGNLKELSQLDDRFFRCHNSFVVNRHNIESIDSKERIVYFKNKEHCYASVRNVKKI

`CCCCCCc1cc(C(=O)COc2ccc(F)cc2F)c(O)cc1O` [4f-12]: the “concentration at which the band of the AgrA-P3 complex disappears” value worked out at 10 µM.

Values taken from US20180021277A1, “ANTI-VIRULENCE COMPOSITIONS AND METHODS” (priority 2012, published 2018).
